From patent US20250313546A1, “NUCLEIC ACID BINDERS” (UNIVERSITY OF STRATHCLYDE, priority 2022, published 2025)
≈ marks a conversion by molar mass, not a printed value.

Key:
[1] = system: T congolense 6C3 (a diminazene resistant strain); test: Resazurin-based (Alamar blue) drug sensitivity assay; conditions: Trypanosoma congolense, read-out: IC50 T. congo C63
[2] = system: T. congolense IL3000 (a drug sensitive wild type); test: as above; conditions: Trypanosoma congolense, read-out: IC50 T. congo
[3] = system: A. fumigatus TR34/L98H (F10017, an azole resistant strain); conditions: Aspergillus fumigatus, read-out: MIC99 A. fumigatus TR34/L98H
Method in brief: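 Broth microdilution followed EUCAST E.DEF 9.3.2 for conidia-forming moulds and E.DEF 7.3.2 for yeasts. MIC was defined as the concentration giving 99% inhibition.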

[4] = system: T. b. brucei B48 (a strain resistant to diamidines and melaminophenyl arsenicals); test: Resazurin-based (Alamar blue) drug sensitivity assay; conditions: Trypanosoma brucei, read-out: IC50 T.b. brucei B48
Protocol: A detailed description of the procedure for evaluating activity against trypanosomes, using an Alamar Blue (resazurin) assay, is described below.
The bloodstream form (BSF) T. b. brucei s427 (see De Koning, H. P. et al., Mol. Biochem. Parasitol. 2000, 106, 181-185), T. evansi AntTat 3/3 (see Dean, S. et al., Proc. Natl. Acad. Sci. USA, 2013, 110, 14741-14746), and T. equiperdum (see Stewart, M. L. et al., Eukaryot. Cell, 2010, 9, 336-343) were cultured in HMI-9 medium (Life Technologies, Paisley, United Kingdom) supplemented with 10% heat inactivated Foetal Bovine Serum (FBS (PAA Laboratories Linz, Austria)), 14 μL/L β-mercaptoethanol (BDH, Dorset, UK), and 3.0 g/L NaHCO3 (Sigma-Aldrich) and adjusted to pH 7.4. These cell lines were maintained at 37° C. in a humidified, 5% CO2 environment.
A resazurin-based (Alamar blue) drug sensitivity assay was used to assess and compare the activity of standard trypanocides in the different cell lines investigated (see Gould, M. K. et al., Anal. Biochem., 2008, 382, 87-93). Briefly, 23 doubling dilutions of the test compound of the invention, starting at 100 μM, and a compound-free control were prepared in 100 μL medium in a 96-well white plate (Greiner Bio-one, Frickenhausen, Germany). The cells were adjusted to 2×10^4 cells/mL for T. b. brucei and T. equiperdum; 4×10^4 cells/mL for T. evansi; and 5×10^5 cells/mL for T. congolense in the appropriate medium. 100 μL of the adjusted cells was then added to the wells containing drug dilutions and incubated for 48 h under respective culture condition. Thereafter, 20 μL of 125 mg/mL resazurin sodium dye was added, and the plate was incubated for a further 24 h. The resorufin fluorescence in each well of the plate was determined and used to calculate the Half maximal effective concentration (EC50) of the drug, as described in Carruthers, L. V. et al., Mol. Microbiol., 2021, 116, 564-588.

[5] = system: T. b. brucei Lister S427 (a drug-sensitive wild type); test: as above; conditions: for IC50: Trypanosoma brucei, read-out: IC50 T.b. brucei; for T.b. brucei Selectivity Indices (SI, IC50 (μM)/IC50 (μM)) Group: Alkyl Amidines and NH Pyrroles; for T.b. brucei Selectivity Indices (SI, IC50 (μM)/IC50 (μM)) Group / T.b. brucei Selectivity Index (SI, IC50 (μM)/IC50 (μM)), numeric value: cytotoxicity against HEK293 cells vs T.b. brucei

SMILES | IC50 [1] [µM] | IC50 [2] [µM] | MIC99 [3] [mg/L] | IC50 [4] [µM] | IC50 [5] [µM] | T.b. brucei Selectivity Indices (SI, IC50 (μM)/IC50 (μM)) Group [5] | T.b. brucei Selectivity Index (SI, IC50 (μM)/IC50 (μM)), numeric value [5]
CN(C)c1ccc(/C=C/c2ccc(C(=O)Nc3c[nH]c(C(=O)Nc4c[nH]c(C(=O)NCCC(=N)N)c4)c3)cn2)cc1 [IIIa9, (E)-N-(5-((5-((3-amino-3-iminopropyl)carbamoyl)-1H-pyrrol-3-yl)carbamoyl)-1H-pyrrol-3-yl)-6-(4-(dimethylamino)styryl)nicotinamide] | 0.25 to 1 | 0.25 to 1 | 5 to 25 (≈ 9.03 to 45.2 µM) | > 1 | 0.25 to 1 |  | 
Cn1cc(NC(=O)c2ccc(/C=C/c3ccc4nonc4c3)cc2)cc1C(=O)Nc1c[nH]c(C(=O)NCCC(=N)N)c1 [IIIa3, (E)-N-(5-((3-amino-3-iminopropyl)carbamoyl)-1H-pyrrol-3-yl)-4-(4-(2-(benzo[c][1,2,5]oxadiazol-5-yl)vinyl)benzamido)-1-methyl-1H-pyrrole-2-carboxamide] | 0.25 to 1 | 0.25 to 1 | 5 to 25 (≈ 8.84 to 44.2 µM) | 0.05 to 0.25 | < 0.05 | D (Group D: SI > 300) | 635
Cn1cc(NC(=O)c2cc(NC(=O)c3ccc(/C=C/c4cnc5ccccc5c4)cc3)c[nH]2)cc1C(=O)NCCC(=N)N [IIIa4, (E)-N-(3-amino-3-iminopropyl)-1-methyl-4-(4-(4-(2-(quinolin-3-yl)vinyl)benzamido)-1H-pyrrole-2-carboxamido)-1H-pyrrole-2-carboxamide] | 0.05 to 0.25 | 0.05 to 0.25 | 5 to 25 (≈ 8.7 to 43.5 µM) | < 0.05 | < 0.05 | D (Group D: SI > 300) | 3362
[H]/N=C(\CCNC(=O)c1cc(NC(=O)c2cc(NC(=O)c3ccc(C=Cc4ccc(N(C)C)cc4)nc3)cn2C)cn1C)NCC [Ia1, (E)-6-(4-(dimethylamino)styryl)-N-(5-((5-((3-(ethylamino)-3-iminopropyl)carbamoyl)-1-methyl-1H-pyrrol-3-yl)carbamoyl)-1-methyl-1H-pyrrol-3-yl)nicotinamide] | 0.05 to 0.25 | 0.05 to 0.25 | 5 to 25 (≈ 8.2 to 41 µM) | 0.25 to 1 | 0.25 to 1 |  | 
Cn1cc(NC(=O)c2cc(NC(=O)c3ccc(/C=C/c4ccc5nonc5c4)cc3)c[nH]2)cc1C(=O)NCCC(=N)N [IIIa1, (E)-N-(3-amino-3-iminopropyl)-4-(4-(4-(2-(benzo[c][1,2,5]oxadiazol-5-yl)vinyl)benzamido)-1H-pyrrole-2-carboxamido)-1-methyl-1H-pyrrole-2-carboxamide] | 0.05 to 0.25 | 0.05 to 0.25 | 5 to 25 (≈ 8.84 to 44.2 µM) | 0.05 to 0.25 | < 0.05 | D (Group D: SI > 300) | 1049
N=C(N)CCNC(=O)c1cc(NC(=O)c2cc(NC(=O)c3ccc(/C=C/c4cnc5ccccc5c4)cc3)c[nH]2)c[nH]1 [IIIa6, (E)-N-(3-amino-3-iminopropyl)-4-(4-(4-(2-(quinolin-3-yl)vinyl)benzamido)-1H-pyrrole-2-carboxamido)-1H-pyrrole-2-carboxamide] | 0.25 to 1 | 0.25 to 1 | 5 to 25 (≈ 8.92 to 44.6 µM) | 0.05 to 0.25 | < 0.05 | D (Group D: SI > 300) | 1192
